Results taken from US20160340422A1 (BEIJING HANMI PHARMACEUTICAL, published 2016).

T1: Mouse IL-17A (mouse, UniProt Q62386 26-158, limits assumed)
T1 construct: Bought recombinant protein; also called mice IL-17A
T1 sequence (looked up): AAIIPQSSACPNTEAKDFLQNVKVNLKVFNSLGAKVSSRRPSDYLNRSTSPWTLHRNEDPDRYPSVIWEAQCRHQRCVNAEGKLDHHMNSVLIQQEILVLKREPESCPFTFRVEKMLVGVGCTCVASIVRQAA

B1: Bifunctional fusion protein A (other)
heavy: [about 120 residues skipped]GGGSGGGGSGGGGSGGGGSGGGGSQVQLKESGPGLVQPSQTLSLTCTVSGFSLTNYYVHWVRQPPGKGLEWMGGVWNDGDTSYNSVLRSRLSITRDTSKSQVLLKMSSLQTEDTATYYCAREGREGFVGYYVMDAWGPGASVTVSSAKTTAPSVYPLAPVCGDTTGSSVTLGCLVKGYFPEPVTLTWNSGSLSSGVHTFPAVLQSDLYTLSSSVTVTSSTWPSQSITCNVAHPASSTKVDKKIEPRGPTIKPCPPCKCPAPNLLGGPSVFIFPPKIKDVLMISLSPIVTCVVVDVSEDDPDVQISWFVNNVEVHTAQTQTHREDYNSTLRVVSALPIQHQDWMSGKEFKCKVNNKDLPAPIERTISKPKGSVRAPQVYVLPPPEEEMTKKQVTLTCMVTDFMPEDIYVEWTNNGKTELNYKNTEPVLDSDGSYFMYSKLRVEKKNWVERNSYSCSVVHEGLHNHHTTKSFSRTPGK
light: DIQMTQSPSFLSASVGERVTLSCKASQNINKYLDWFQQKLGEAPKLLIYNADNLHTGIPSRFSGSGSFSDFILTISSLQPEDDATYFCLQRESWPYTFGAGTKLELKRADAAPTVSIFPPSSEQLTSGGASVVCFLNNFYPKDINVKWKIDGSERQNGVLNSWTDQDSKDSTYSMSSTLTLTKDEYERHNSYTCEATHKTSTSPIVKSFNRNEC
notes: CTLA4 ECD fused to the N-terminus of the heavy chain of rat 1D10 / mouse IgG2a anti-IL-17A antibody; also called human CTLA4 ECD-linker-anti-IL-17A mAb hc-A with anti-IL-17A mAb lc-A
B2: Chimera analogue of the bifunctional fusion protein A (other)
heavy: [about 120 residues skipped]GGGSGGGGSGGGGSGGGGSGGGGSQVQLKESGPGLVQPSQTLSLTCTVSGFSLTNYYVHWVRQPPGKGLEWMGGVWNDGDTSYNSVLRSRLSITRDTSKSQVLLKMSSLQTEDTATYYCAREGREGFVGYYVMDAWGPGASVTVSS[human IgG1 constant region skipped]
light: DIQMTQSPSFLSASVGERVTLSCKASQNINKYLDWFQQKLGEAPKLLIYNADNLHTGIPSRFSGSGSFSDFILTISSLQPEDDATYFCLQRESWPYTFGAGTKLELKRTVAAPSVFIFPPSDEQLKSGTASVVCLLNNFYPREAKVQWKVDNALQSGNSQESVTEQDSKDSTYSLSSTLTLSKADYEKHKVYACEVTHQGLSSPVTKSFNRGEC
notes: also called the chimera
B3: Humanized analogue of the bifunctional fusion protein A (other)
heavy: [about 120 residues skipped]GGGSGGGGSGGGGSGGGGSGGGGSEVQLVESGGGLVQPGRSLRLSCAASGFSLTNYAMHWVRQAPGKGLEWVSAIWNDGDIDYADSVEGRFTISRDNAKNSLYLQMNSLRAEDTAVYYCAKEGREGFVGYYVMDAWGQGTLVTVSS[human IgG1 constant region skipped]
light: DIQMTQSPSSLSASVGDRVTITCKASQNINKYLDWYQQKPGKAPKLLIYNADNLHTGVPSRFSGSGSGTDFTLTISSLQPEDVATYYCLQRESWPYTFGQGTKVEIKRTVAAPSVFIFPPSDEQLKSGTASVVCLLNNFYPREAKVQWKVDNALQSGNSQESVTEQDSKDSTYSLSSTLTLSKADYEKHKVYACEVTHQGLSSPVTKSFNRGEC
B4: Bifunctional fusion protein C (other)
heavy: QVQLKESGPGLVQPSQTLSLTCTVSGFSLTNYYVHWVRQPPGKGLEWMGGVWNDGDTSYNSVLRSRLSITRDTSKSQVLLKMSSLQTEDTATYYCAREGREGFVGYYVMDAWGPGASVTVSSAKTTAPSVYPLAPVCGDTTGSSVTLGCLVKGYFPEPVTLTWNSGSLSSGVHTFPAVLQSDLYTLSSSVTVTSSTWPSQSITCNVAHPASSTKVDKKIEPRGPTIKPCPPCKCPAPNLLGGPSVFIFPPKIKDVLMISLSPIVTCVVVDVSEDDPDVQISWFVNNVEVHTAQTQTHREDYNSTLRVVSALPIQHQDWMSGKEFKCKVNNKDLPAPIERTISKPKGSVRAPQVYVLPPPEEEMTKKQVTLTCMVTDFMPEDIYVEWTNNGKTELNYKNTEPVLDSDGSYFMYSKLRVEKKNWVERNSYSCSVVHEGLHNHHTTKSFSRTPGK
light: [about 120 residues skipped]GGGSGGGGSGGGGSGGGGSGGGGSDIQMTQSPSFLSASVGERVTLSCKASQNINKYLDWFQQKLGEAPKLLIYNADNLHTGIPSRFSGSGSFSDFILTISSLQPEDDATYFCLQRESWPYTFGAGTKLELKRADAAPTVSIFPPSSEQLTSGGASVVCFLNNFYPKDINVKWKIDGSERQNGVLNSWTDQDSKDSTYSMSSTLTLTKDEYERHNSYTCEATHKTSTSPIVKSFNRNEC
notes: CTLA4 ECD linked to the N-terminus of the light chain of control antibody A
B5: Bifunctional fusion protein B (other)
heavy: [about 120 residues skipped]GGGSGGGGSGGGGSGGGGSGGGGSQVQLQESGPGLVKPSETLSLTCTVSGFSLPSHSVSWIRQPPGKGLEWIGIIWNQGGTDYNSAFKSRVTISVDTSKNQFSLKLSSVTAADTAVYYCARNAYITDYYYENYFMDAWGQGTLVTVSS[human IgG1 constant region skipped]
light: DIVMTQSPLSLPVTPGEPASISCKSSQSLLFSENQKNYLAWYLQKPGQSPQLLIYWTSTRQSGVPDRFSGSGSGTDFTLKISRVEAEDVGVYYCQQSYYTPYTFGQGTKVEIKRTVAAPSVFIFPPSDEQLKSGTASVVCLLNNFYPREAKVQWKVDNALQSGNSQESVTEQDSKDSTYSLSSTLTLSKADYEKHKVYACEVTHQGLSSPVTKSFNRGEC
notes: CTLA4 ECD fused to the N-terminus of the heavy chain of humanized 16C10 (from US 7,846,443); also called human CTLA4 ECD-linker-anti-IL-17A mAb hc-B with anti-IL-17A mAb lc-B

Columns and labels:
Mouse IL-17A [1] = biological target: T1, Mouse IL-17A; experiment: ELISA, coated mouse IL-17A, HRP anti-mouse IgG
Human IL-17A [2] = biological target: T2, Human IL-17A (human, UniProt Q16552 24-155); experiment: cell-based or functional assay
[3] = biological target: T3, B7 molecule on Raji cells; experiment: binding to B7; method not stated in Example 11 (MFI read-out)
T3 construct: whole, on cells; Only 'B7 molecule' is printed; Raji is a human cell line, but neither the species nor the family member is stated; also called ligand-B7 molecule

Human IL-17A [4] = biological target: T2, Human IL-17A; experiment: ELISA, coated human IL-17A, HRP anti-mouse IgG
T2 sequence (Q16552 24-155 limits assumed): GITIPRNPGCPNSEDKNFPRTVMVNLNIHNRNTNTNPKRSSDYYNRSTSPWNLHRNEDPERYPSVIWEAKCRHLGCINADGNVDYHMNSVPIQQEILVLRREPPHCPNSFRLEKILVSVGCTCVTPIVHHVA

Human IL-17A [5] = biological target: T2, Human IL-17A; experiment: ELISA, coated human IL-17A
Mouse IL-17A [6] = biological target: T1, Mouse IL-17A; experiment: ELISA on coated mouse IL-17A

Binder | binding result (Mouse IL-17A [1]) | Mean fluorescence intensity (MFI) for binding to B7 [3] [MFI] | further results
B1 | binds |  | IC50 for inhibiting GROα secretion from HT-29 cells induced by IL-17A (Human IL-17A [2]): 0.911 nM
B2 |  | 20 | 
B3 |  | 20 | 
B4 | binds |  | binding result (Human IL-17A [4]): binds
B5 |  |  | EC50 (Human IL-17A [5]): 0.103 nM; binding result (Mouse IL-17A [6]): no binding
